± gives the standard deviation. The entries are a selection whose mix differs from that of the whole data set.

The subject of this test is MIWI (PIWIL1) piRISC loaded with piRNA #1 (30 nt). The test is described as follows: pre-steady-state target cleavage rate (min^-1); MIWI and MILI are mouse PIWI proteins and EfPiwi is from a freshwater sponge; tags in brackets are library labels; higher = faster piRNA-guided slicing of the target. The settings on record: guide: piRNA #1 5'p-UGAGGUAGUAGGUUGUAUAGUAUCCAGAGG; auxiliary factor: 500 nM mouse GTSF1. A digest of the protocol: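 With or without 500 nM GTSF1 partner protein, 1 nM active affinity-purified piRISC carrying one synthetic guide was mixed with 0.1 nM transcribed, DNA-blocked target RNA library in HEPES–potassium acetate buffer at 33 °C for 0–8 or 0–960 min. Uncleaved targets were sequenced and normalised to depth and to weakly complementary targets, three trials were pooled, and k3 was capped at 0.0001 min^-1. The pre-steady-state cleavage rate came from a burst-and-steady-state fit.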
Take GGAGACGAUAACUAUACAACCUACUACCUCA: the “pre-steady-state target cleavage rate” value worked out at 1.17 ± 0.07.

As for CCUCUGGAUACUAUACAACCUACUGCCUCA, the “pre-steady-state target cleavage rate” value is 1.61 ± 0.1.

Regarding GGAGACCUUACUAUACAACCUAGUACCUGA, the “pre-steady-state target cleavage rate” value worked out at 0.00911 ± 0.005.

Turning to GCUCUGGAUACUAUACAACCUACUUCCACA, the “pre-steady-state target cleavage rate” value was 0.312 ± 0.053.

As to GGAGAGGAUACUAUACAACCUACAACCUCA, the “pre-steady-state target cleavage rate” value amounted to 0.624 ± 0.047.

On to GGAGACGAUACUAUACAACCUACUACACUCA, for which the “pre-steady-state target cleavage rate” value is 0.855 ± 0.08.

On to GGAGACCUAUCUAUACAAGCUACUUCCUCA, for which the “pre-steady-state target cleavage rate” value worked out at 0.155 ± 0.02.

With GGAGACCAUACAAUACAACCUUCUACCUCA, the “pre-steady-state target cleavage rate” value was determined as 0.23 ± 0.032.

On to “GGAGUGGAUACUAUACAACCUUGAUGGAGA [g10:g26:cont:t1A]”, for which the “pre-steady-state target cleavage rate” value was less than 0.0001.

Consider GGAGACCUAUCUAUACAACCUACCUACCUCA, for which the “pre-steady-state target cleavage rate” value was 0.297 ± 0.025.

For the sequence GGAGUGGAUACUAUACAACCUACUACCUGCA, the “pre-steady-state target cleavage rate” value came to 0.549 ± 0.049.

Turning to GGAGACCUAACUAUACAACCUAGUACGUCA, the “pre-steady-state target cleavage rate” value amounted to 0.206 ± 0.056.

For the sequence GGAGUGGAUAGUAUACAACCUACUACGUCA, the “pre-steady-state target cleavage rate” value was 0.227 ± 0.028.

Regarding GGAGACCUAUCUAUACAACCUACAACCUGA, the “pre-steady-state target cleavage rate” value was 0.124 ± 0.031.

In the case of GGAGUGGAUACUAUACAAACUACUACCUCA, the “pre-steady-state target cleavage rate” value turned out to be 0.801 ± 0.034.

GGAGACCAUACUAUACUACGUACUACCUCA: the “pre-steady-state target cleavage rate” value amounted to 0.109 ± 0.016.

With CCUCUGGUACUAUACAACCUACUACCUCA, the “pre-steady-state target cleavage rate” value worked out at 0.79 ± 0.042.

Turning to GGACUGGAUACUAUACAUCCAACUACCUCA, the “pre-steady-state target cleavage rate” value came to 0.0649 ± 0.0092.

Consider GGACUGGAUACUAUACAUGGUACUACCUCA, for which the “pre-steady-state target cleavage rate” value is 0.0159 ± 0.0032.

With GGAGUGGCAUACUAUACAACCUACUACCUCA, the “pre-steady-state target cleavage rate” value was 1.8 ± 0.11.

Regarding GCUACUGGAUACUAUACAACCUACUACCUCA, the “pre-steady-state target cleavage rate” value was 2.14 ± 0.13.

Consider GGAGACCUAUCUAUACAUCCUACUAGCUCA, for which the “pre-steady-state target cleavage rate” value is 0.111 ± 0.017.

Consider GGAGACCAUACUAUUCAACCUAGUACCUCA, for which the “pre-steady-state target cleavage rate” value is 0.417 ± 0.027.

Take “GGACUGGAUACUAUACAACCAUGAUGGAGA [g11:g27:cont:t1A]”: the “pre-steady-state target cleavage rate” value was less than 0.0001.

For the sequence CCACUGGAUACUAUUCAACCUACUACCUCA, the “pre-steady-state target cleavage rate” value worked out at 1.99 ± 0.12.

As to GGUCUGGAUACUAUACAACCUUACUACCUCA, the “pre-steady-state target cleavage rate” value was found to be 0.00317 ± 0.0022.

For GCUCUGGAUACUAUAGAACCUACUACCUGA, the “pre-steady-state target cleavage rate” value worked out at 0.0822 ± 0.021.

Regarding GGAGACCUAUCUAUACAAGCUACAACCUCA, the “pre-steady-state target cleavage rate” value was 0.157 ± 0.018.

For the sequence GGAGAGGAUUCUAUACAACCAACUACCUCA, the “pre-steady-state target cleavage rate” value turned out to be 0.0987 ± 0.011.

Turning to GGUCUCGAUACUAUACAACCUACUUCCUCA, the “pre-steady-state target cleavage rate” value is 0.173 ± 0.045.

As for GGAGACGAUACUAUACAACCUAGUUCCUCA, the “pre-steady-state target cleavage rate” value amounted to 0.178 ± 0.043.

As for CCUCUGGAUUCUAUACAACCUACUACGUCA, the “pre-steady-state target cleavage rate” value was determined as 0.598 ± 0.071.

As for GGAGAGGAUACCUAUACAACCUACUACCUCA, the “pre-steady-state target cleavage rate” value is 1.27 ± 0.079.

As for GGAGUGGAUACUAUACAACCUACGACCUCA, the “pre-steady-state target cleavage rate” value is 0.4 ± 0.042.

As for GCUGUGGAUACUAUACUACCUACUACCUCA, the “pre-steady-state target cleavage rate” value worked out at 1.54 ± 0.097.

For the sequence GGAGACCUAUGUAUACAACCUACUACCUUCA, the “pre-steady-state target cleavage rate” value came out at 0.0147 ± 0.0029.

As for CCUCUGGAUUCUAAACAACCUACUACCUCA, the “pre-steady-state target cleavage rate” value turned out to be 0.844 ± 0.065.

Regarding GGAGACGAAACUAUACAACCUAGUACCUCA, the “pre-steady-state target cleavage rate” value came to 0.491 ± 0.062.

Take GGAGACCAUACAAUACUACCUACUACCUCA: the “pre-steady-state target cleavage rate” value was 0.146 ± 0.035.

For the sequence GGAGACCUAUGAUAUGUUCCUAGUAGCUCA, the “pre-steady-state target cleavage rate” value was less than 0.0001.

Source of the values: the supplement of paper PMC10338343.
